The campaign covered roughly 44,000 compounds. About 340 (0.77%) were called active. Roughly 5% stayed inconclusive and do not appear here. Calls come from the whole dose curve; as a rule, active = well fitted inhibition curve with a large enough effect; inconclusive = small, poorly fitted or top-dose-only effect; inactive = flat fitted curve, though single readings scatter. The list shows a part of the results.
Assay: Acumen qHTS Assay for Inhibitors of the mTORC1 Signaling Pathway in MEF (Tsc2-/-, p53-/-) Cells: Sytravon;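 note: plate controls were DMSO for no effect and rapamycin for full effect; nearly all actives have a fitted effect of over 50% in size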
Conditions: phospho-rpS6 immunofluorescence/PI, 24 h; series mostly up to 38.3 µM; activity change, negative = inhibition: at the top concentration
Method in brief: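 Plate MEFs (Tsc2-/-, p53-/-, empty vector) in DMEM/10% FBS; after 24 h add compound, incubate 24 h at 37 degree Celsius; fix in PFA/TX-100, block, stain phospho-rpS6 and 10 uM PI; scan at 488 nm; report % positive cells.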

Activity change, negative = inhibition, inactive:
CCOC(=O)c1noc2nc(C)n(Cc3cccc([N+](=O)[O-])c3)c(=O)c12 -3.23%
CCc1nn(CC(=O)NC(C)CCc2ccccc2)c(=O)c2cc3c(OC)cccc3n12 (centres undefined) -2.21%
Cc1nnc(SCC(=O)NCc2ccccc2Cl)c2nn(-c3ccccc3)c(C)c12 -0.166%
CCc1ccc(-n2nc(C)c3c(C)cc(=O)n(CC(=O)Nc4ccc(F)cc4C)c32)cc1 1.99%
CCC(C(=O)N1CCN(c2cc(C)ccc2C)CC1)n1nc(C)n2c(cc3occc32)c1=O (centres undefined) -1.56%
Cc1ccc(S(=O)(=O)N2CCc3cc(C(=O)Nc4c(F)cccc4F)ccc32)cc1 -0.525%
Cc1ccc2c(CN3CCN(C(=O)c4ccc(Br)cc4)CC3)cc(=O)oc2c1 -3.5%
CCOC(=O)Cn1c(=O)n(C2CCCCC2)c2nc(-c3ccc(C(C)C)cc3)nc(C(N)=O)c21 3.5%
CCOc1ccc(NC(=O)C2CCCN(c3nnc(C)c4c(C)n(-c5ccccc5)nc34)C2)cc1 (centres undefined) -0.709%
Cn1c(=O)c2c(nc(N3CCOCC3)n2Cc2ccc(Br)cc2)n(C)c1=O 0.801%
COc1ccccc1NC(=O)CSC1=Nc2ccccc2C2=NC(CC(=O)NCc3ccccc3)C(=O)N12 (centres undefined) -2.03%
Cc1ccc(CN2CCN(C3CCNCC3)C(=O)C2=O)cc1 7.27%
COc1ccc(NC(=O)C2CCN(c3ccc(Sc4ccc(C)cc4)nn3)CC2)c(OC)c1 1.78%
O=C(CSc1ccc(-c2ccccn2)nn1)Nc1ccc(F)cc1F -0.0229%
CNS(=O)(=O)c1cn(CC(=O)Nc2ccc(C(C)=O)cc2)cc1S(=O)(=O)NC -7.99%
CCCCNS(=O)(=O)c1ccc(C)c(-c2nnc3c4ccccc4c(C)nn23)c1 -3.89%
Cc1ccc(CN2CCN(C3CCN(C(=O)Nc4ccc(C)cc4Cl)CC3)C(=O)C2=O)cc1 4.08%
CC(=O)N1CCc2cc(CNC(=O)c3ccccc3Br)ccc21 -5.22%
O=C(NCc1cccs1)C1CCN(C(=O)N2CCOc3ccc(Cl)cc32)CC1 -1.14%
CC(=O)N1CCc2cc(S(=O)(=O)NC(Cc3ccccc3)C(=O)NCc3ccc(C)cc3)ccc21 (centres undefined) -3.19%
COc1ccc(CCNC(=O)C2CCN(S(=O)(=O)c3c(C)noc3/C=C/c3ccc(C)cc3)CC2)cc1OC 1.15%
CC(C)OC(=O)c1c(-c2ccccc2)c(-c2ccccc2)nn(C)c1=O -1.38%
Cc1cc(C)c(Cn2c(C3CC(=O)N(c4ccc(F)cc4)C3)nc3ccccc32)c(C)c1 (centres undefined) 0.539%
CC(C)CCN(C(=O)Nc1ccccc1)C(C)c1cccs1 (centres undefined) -1.56%
CCOC(=O)c1ccc(NC(=O)CCn2ccc(C)n2)cc1 0.361%
COc1cccc(NC(=O)CSc2nc(=O)n(Cc3ccncc3)c3c2CCC3)c1 0.194%
CCOC(=O)N1CCC2(CC1)OC(=O)C(C)=C2C(=O)NCc1cccc(F)c1 0.13%
Cc1cccc(NC(=O)CN2C(=O)c3cccc4cccc2c34)c1C 13.4%
CCCN1CCN(c2ncnc3sc(C(=O)Nc4c(C)cc(C)cc4C)c(C)c23)CC1 10.8%
CCc1ccc(C(=O)c2cn(CC(=O)Nc3ccc(OC)cc3)c3cc4c(cc3c2=O)OCO4)cc1 6.84%
CCC1CN(S(=O)(=O)c2cc(-c3onc(C)c3C)ccc2C)c2cc(Cl)ccc2O1 (centres undefined) -13.1%
NC(=O)C1(N2CCCCC2)CCN(C(=O)Nc2ccc(F)cc2F)CC1 2.99%
Cc1ccc(Cn2ccnc2SCC(=O)Nc2nc3ccccc3s2)cc1 -12.5%
Cc1cc(NC(=O)C2CCN(S(=O)(=O)c3cccc4nsnc34)CC2)ccc1Br 0.499%
NS(=O)(=O)c1ccc(NC(=O)C(=O)Nc2ccc3nc4n(c(=O)c3c2)CCCCC4)cc1 1.67%
Cc1cccc(C(=O)N2c3nc(-c4ccco4)nn3C3(CCCCC3)[C@@H]3CCCC[C@@H]32)c1 -6.55%
Cc1cccc(-n2ncc3c(N4CCCC(C)C4)ncnc32)c1 (centres undefined) 0.566%
CCOc1ccc2nc(N3CCCC(C(=O)Nc4cc(Cl)c(OC)cc4OC)C3)sc2c1 (centres undefined) -4.88%
Cc1c(C(=O)Nc2cccc(-c3nc4ccccc4s3)c2)oc2ccccc12 -5.17%
CCCCCCSc1nnc2c(n1)OC(C)Nc1ccc(Br)cc1-2 (centres undefined) -11.3%
CSc1nn(Cc2cccc(C)c2)c(N)c1S(=O)(=O)c1ccccc1 -9.32%
COc1ccc(CNC(=O)c2ccc(NC(=O)N3CCSc4ccccc43)cc2)cc1 0.207%
Cc1ccccc1Cn1c2ccccc2c2cnn(CC(=O)NC3CCC(C)CC3)c(=O)c21 (centres undefined) -0.38%
COc1cc2c(=O)n(CCC(=O)NCC3CCCO3)c(=O)n(CC(=O)Nc3ccc(C)cc3C)c2cc1OC (centres undefined) -0.757%
COc1cc(NC(=O)C(CC(C)C)NS(=O)(=O)c2ccc3c(c2)CCN3C(C)=O)cc(OC)c1 (centres undefined) -2.72%
CC(C)c1ccc2oc(-c3ccc(NC(=O)c4cccc(Br)c4)cc3)nc2c1 -22.5%
Cc1ccc(NC(=O)CC(C)S(=O)(=O)c2ccc3c(c2)NC(=O)CO3)c(Cl)c1 (centres undefined) -8.35%
O=C(Nc1ccccc1C(F)(F)F)c1ccc2oc(=O)c(S(=O)(=O)c3ccc(F)cc3)cc2c1 -4.81%
O=C(NCCC1=CCCCC1)c1ccc2c(=O)n3nc(Nc4ccccc4)sc3nc2c1 2.08%
COCCCNC(=O)c1cn(CCOC)c(=O)c2c1c1ccccc1n2C -0.087%
Cc1ccccc1CNC(=O)CN1C(=O)CSc2ccc(S(=O)(=O)N(C)C)cc21 9.73%
COc1ccc(-c2noc(CCC(=O)Nc3ccc(C(F)(F)F)cc3)n2)cc1 -8.44%
Cc1ccc(CSc2oc(-c3cccs3)nc2S(=O)(=O)c2ccccc2)cc1 -10.5%
CC(=O)c1ccc(N2CCN(c3ncnc4c3nc3n4CCCC3)CC2)cc1 -0.505%
COc1ccc(CCNC(=O)Cc2c(C)c3c(cc(C)c4c(C)c(C)oc43)oc2=O)cc1 2.33%
Cc1ccc2ncc(C(=O)N3CCN(c4ccccc4F)CC3)c(=O)n2c1 0.0918%
CCOC(=O)N1CCc2c(sc3c2c(=O)n(Cc2ccccc2)c(=O)n3Cc2ccccc2Cl)C1 -3.01%
Cc1c(NC(=O)c2cc(-c3cccc(O)c3)on2)c(=O)n(-c2ccccc2)n1C -9.43%
Cc1ccc(S(=O)(=O)N(CC(=O)NCCc2ccc(Cl)cc2)c2ccccc2C)cc1 1.14%
CCc1ccc(OCC(=O)N(Cc2ccc(C)o2)C2CCS(=O)(=O)C2)cc1 (centres undefined) -7.71%
COc1cccc(NC(=O)C2CCN(c3nnc(C)c4c(C)n(-c5ccccc5)nc34)CC2)c1 -5.52%
CCc1ccccc1NC(=O)N1CCc2c([nH]c3ccccc23)C1c1ccc(C)cc1 (centres undefined) 0.29%
COc1ccc(CCNC(=O)c2cnn(-c3ccc(F)cc3)c2C2CCN(C(=O)OC(C)(C)C)CC2)c(OC)c1 -3.91%
Cc1c(NC(=O)c2cc(=O)c3ccccc3o2)c(=O)n(-c2ccccc2)n1C 4.1%
Cc1coc2c(C)c3oc(=O)c(CC(=O)NCCc4ccc(Cl)cc4)c(C)c3cc12 -2.43%
COc1ccc(NC(=O)C2CCCN(S(=O)(=O)c3ccc4c(c3)oc(=O)n4C)C2)c(OC)c1 (centres undefined) -5.89%
Cc1cccc(CSc2nc(-c3cccs3)ccc2C#N)c1 -12.2%
O=C(COc1ccccc1F)Nc1nnc(SCc2cc(=O)c3ccccc3[nH]2)s1 5.7%
COCCCNC(=O)c1ccc(-n2c(-c3ccccc3)cc3c2CCC(C)C3)cc1 (centres undefined) 8.17%
COc1cccc(N2CCN(C(=O)c3cccn3-c3nnc(N4CCCC4)s3)CC2)c1 6.83%
CCCCOc1ccc(S(=O)(=O)Nc2ccc(-c3ccc(N4CCC(C)CC4)nn3)cc2)cc1 4.16%
COc1ccc(S(=O)(=O)Nc2ccc(-c3cn4ccsc4n3)cc2)cc1C 0%
COc1ccc(CCN2C(=O)c3oc4cc(C)cc(C)c4c(=O)c3C2c2ccccc2F)cc1OC (centres undefined) 1.96%
COc1cccc(-c2nnc(SCC(=O)NC3CCCCC3)o2)c1 -0.286%
CCCn1c(=O)c2sccc2n2c(CCCC(=O)Nc3ccc(Oc4ccc(Cl)cc4)cc3)nnc12 0%
Cc1ccc(NC(=O)c2ccc(CN3C(=O)CCn4nc(C)cc43)cc2)c(Cl)c1 -1.08%
CC(=O)c1ccc(NS(=O)(=O)c2ccc(-c3cc(C)no3)s2)cc1 -5.29%
CCOc1ccc(CCNC(=O)C2CCN(C(=O)c3cc4sccc4n3CC)CC2)cc1OCC 1.69%
CC(=O)c1ccc(NC(=O)C2CCC(CNS(=O)(=O)c3cccs3)CC2)cc1 (centres undefined) -1.23%
Cc1cccc(NC(=O)Cn2c(=O)ccc3cc(S(=O)(=O)N4CCCC4)ccc32)c1C 0.577%
COc1cccc(Cc2nc3ccccc3nc2SCC(=O)NCc2ccc(C)cc2)c1 8.01%
COc1ccc(CCNC(=O)c2ccc3c(c2)nc2n3CCC(C)C2)cc1OC (centres undefined) -19.5%
CCOC(=O)c1noc2nc(C)n(Cc3cccc(C#N)c3)c(=O)c12 1.07%
COc1ccc(N2C(=O)CS(=O)(=O)C23C(=O)N(Cc2ccc(C)cc2)c2ccccc23)cc1Cl (centres undefined) 5.41%
O=C(NCc1ccc(F)cc1)c1ccc2c(c1)nnn2C1CCCC1 0%
CCOc1ccc(NC(=O)N2CCN(Cc3cc(=O)n4nc(-c5ccc(OC)cc5)sc4n3)CC2)cc1 1.76%
Cc1c(NC(=O)c2cc(-c3ccc(Cl)cc3)on2)c(=O)n(-c2ccccc2)n1C -0.113%
CCOC(=O)c1[nH]c(C)c(CCC(=O)NCc2ccc(OC)cc2)c1C -4.92%
Cc1ccccc1-c1nnc(SCC(=O)N(C)C2CCCCC2)o1 -0.986%
CCNC(=O)c1ccc(CSc2nc3ccncc3n2Cc2ccc(F)cc2)cc1 -3.12%
CCN(C(=O)Cn1cnc2onc(-c3ccc(F)cc3)c2c1=O)c1cc(C)ccc1C 7.09%
CCn1c(C(=O)NCc2cc(Br)ccc2OC)cc2oc3ccccc3c21 -0.37%
Cc1ccc(NC(=O)N2CCN(c3cc(-c4noc(C)n4)ccc3C)CC2)c(C)c1 -8.75%
Cc1cccc(CCNC(=O)CN(c2ccc(C(C)C)cc2)S(=O)(=O)c2c(C)nn(C)c2C)c1 6.5%

From PubChem BioAssay AID493208 (National Center for Advancing Translational Sciences (NCATS), 2011)
